In all, about 50,000 compounds went through this assay and about 800 (1.6%) showed an effect of 50% or more. Some of the results follow.
The compounds below were run against Bcl-2-like protein 10 (Homo sapiens) (UniProt Q9HD36) (assay: TR3 peptide-Bcl-B binding displacers, biochemical primary FP assay, phenotype converters (AID 1240;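 also: 0% = Bcl-B with tracer peptide and DMSO and 100% = tracer peptide lacking Bcl-B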)). Conditions: GST-Bcl-B / FITC-TR3 peptide fluorescence polarization; stronger effect = higher value; compound at 3.75 mg/L.
Sequence of UniProt Q9HD36 (Q9HD36 whole entry, looked up): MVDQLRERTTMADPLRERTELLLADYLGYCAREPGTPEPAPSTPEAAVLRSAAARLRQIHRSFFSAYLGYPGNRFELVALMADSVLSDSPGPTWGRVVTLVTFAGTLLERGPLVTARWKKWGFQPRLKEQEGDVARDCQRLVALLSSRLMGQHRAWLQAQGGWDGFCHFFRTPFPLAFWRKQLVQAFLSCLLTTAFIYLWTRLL

SMILES | displacement
CCCNC(=S)Nc1c(C)n(C)n(-c2ccccc2)c1=O | 2.5%
COC(=O)c1ccccc1NC(=O)Cn1c(SC)nc2ccccc21 | 8.3%
CC1=NN(c2ccccc2)C(=O)/C1=C\c1cc([N+](=O)[O-])ccc1N(C)C | 10.6%
CCc1ccccc1NC(=O)c1cc(-c2ccc(C)s2)nc2ccccc12 | -7.3%
O=C(CSc1nnnn1-c1ccccc1)NCc1ccccc1 | 2.6%
O=C(O)CN1C(=O)/C(=C\c2ccccc2Cl)SC1=S | 5%
COc1cccc(C2NC(=S)NC(C)=C2C(=O)Nc2ccccc2)c1 (stereo not given) | 0.4%
Cc1ccc(C(=O)Nc2ccc(S(=O)(=O)N3CCCC3)cc2)cc1 | 12.3%
COc1cc(C=NN2C(=O)C3C4C=CC(C5CC45)C3C2=O)cc(Br)c1O (stereo not given) | -11%
CCOc1ccc(CN2CCN(C(=O)CC(C)C)CC2)cc1 | 11.9%
O=Cc1cccc(OCc2c(F)cccc2Cl)c1 | -2.4%
COc1ccc(C2=NN(C(=O)CCC(=O)O)C(c3ccc(OC)cc3)C2)cc1 (stereo not given) | -11.7%
O=C1C2C3C=CC(C4CC34)C2C(=O)N1c1cccc(Cl)c1 (stereo not given) | 2.7%
Cc1cccc(C2=N/C(=C/c3ccc([N+](=O)[O-])cc3)C(=O)N2c2ccc(O)cc2)c1 | 10.3%
Cc1ccc(-n2nc3ccc(NC(=O)c4ccc([N+](=O)[O-])cc4Cl)cc3n2)cc1 | 3.2%
Cc1cccc(OCC(=O)Nc2ccc(OCc3ccccc3)cc2)c1C | 11.4%
C=CCN1C(=O)/C(=C\c2ccc(-c3ccc(C(=O)OCC)cc3)o2)SC1=S | 90.3%
CCN(CC)c1ccc(/C=C/C(=O)c2ccc(NC(C)=O)cc2)cc1 | -58.9%
CCCC(=O)Nc1sc(C(=O)N(CC)CC)c(C)c1C(=O)OC | -2.1%
COc1ccc(NC(=O)c2c(NC(=O)c3ccco3)sc(-c3ccccc3)c2C)cc1 | -7%
O=C1C=C(c2c(O)ccc3ccccc23)c2ccccc2C1=O | 1%
CN1CCN(c2c([N+](=O)[O-])c(=O)n(C)c3ccccc23)CC1 | -4.8%
Cc1cccc(C)c1OC(=O)c1ccc([N+](=O)[O-])cc1Cl | -3.6%
COC(=O)C[n+]1ccccc1CCC#N | 12.6%

SMILES | displacement
Cc1cc2c(cc1C)NC(CC(=O)Nc1ccc(Cl)cc1)C(=O)N2 (stereo not given) | -87.1%
CCOC(=O)C1=C(C)N=c2s/c(=C\c3ccco3)c(=O)n2C1c1ccccc1OC (stereo not given) | 74.3%
CCOc1cc(/C=C2/SC(=S)N(CC)C2=O)ccc1OC(=O)c1cccc([N+](=O)[O-])c1 | 34.7%
COc1ccccc1NC(=O)/C(=C\c1ccco1)NC(=O)c1cccs1 | -3.7%
O=c1oc2cc([N+](=O)[O-])ccc2nc1/C=C(\O)c1cccc(Br)c1 | 3%
COc1ccc(NC(=O)COc2cccc(C)c2C)c([N+](=O)[O-])c1 | -14.7%
O=C(NC(c1ccccc1)c1ccccc1)c1ccc([N+](=O)[O-])cc1 | 11.2%
CC(=O)Nc1nc2ccccc2n1CCN(C)C | 7.6%
CCCOc1ccc(C(=O)Nc2nc(-c3ccccc3)cs2)cc1 | 3.7%
COc1ccc(/C=C2\C(=O)NN(c3ccccc3)C2=O)cc1O | 0.4%
C/C(Cn1nnc([N+](=O)[O-])n1)=N\NC(=O)c1ccc(O)cc1 | 12.3%
O=S(=O)(c1ccc(Cl)cc1)N1CCN(c2ccccn2)CC1 | 9%
Cc1nn(CC(=O)NCc2ccccc2)c(=O)c2ccccc12 | -2.7%
CC(C)CC(=O)Nc1nc(-c2ccc3ccccc3c2)cs1 | -7.4%
Cc1ccc(NCCC(=O)c2ccc(Cl)cc2)cc1 | 8.5%
O=C1C(=O)N(c2nncs2)C(c2ccc(F)cc2)/C1=C(\O)c1ccccc1 (stereo not given) | 13.6%
CC(C)N(C(=O)c1ccccc1F)C(C)C | 1.3%
Cc1nc(/N=C(/N)NC(=O)c2ccccc2N)nc2ccccc12 | 5.3%
CC(C)COc1ccc(Cc2c(O)nc(N)[nH]c2=O)cc1 | -7.3%
CCOc1ccc(/C=N/NC(=O)c2ccccc2O)cc1 | 12.2%
CCOC(=O)C(=O)Nc1sc2c(c1C(=O)OCC)CC(C)(C)OC2 | 25.7%
COC(=O)c1sccc1NC(=O)c1cccc(Br)c1 | 19%
O=c1[nH]c2ccc(Nc3nc4ccccc4nc3NS(=O)(=O)c3ccc(Cl)cc3)cc2[nH]1 | 102%
Cn1c(SCC(=O)N/N=C/c2c(Cl)cccc2Cl)nc2ccccc21 | -3.1%

SMILES | displacement
CCOc1ccccc1C(=O)Nc1nc2ccc(C)cc2s1 | 9.1%
CS(=O)(=O)N(CC(=O)O)c1ccc(Br)cc1 | 5.6%
CN(C)c1ccc(/C=N/NC(=O)c2ccc(CN3CCOCC3)cc2)cc1Br | 6.3%
CCCC1(O)CC(c2ccccc2)N(C)C(c2ccccc2)C1C (stereo not given) | 9.8%
Cc1ccccc1OCC(=O)Nc1cccc(NC(=O)c2ccccc2Cl)c1 | 0.1%
COc1ccccc1/C=N\NC(=O)c1cc(C(C)(C)C)[nH]n1 | 3.5%
O=C(/C=C/c1ccc([N+](=O)[O-])o1)c1ccc(I)cc1 | 12.7%
O=C(NCCO)C(=O)Nc1ccc(Cl)c(C(F)(F)F)c1 | -4.6%
Cc1ccc(-c2cc3nc4c(c(=O)n3[nH]2)CCCC4)cc1 | -5.3%
O=C(O)c1c(Br)c(Br)c(Br)c(Br)c1C(=O)N1CCCC1 | -6.7%
CCOC(=O)c1c(NC(=O)Cc2ccc(Cl)cc2)sc(C(=O)Nc2ccc(OC)cc2OC)c1C | 18.5%
CCCC(=O)Nc1ccc(N2CCN(C(C)=O)CC2)cc1 | 14.5%
O=C(Nc1cccc(Br)c1)c1ccc(N2C(=O)c3cccnc3C2=O)cc1 | -13.9%
CC(=O)c1cccc(NC(=O)CC2S/C(=N\N=C\c3cccs3)NC2=O)c1 (stereo not given) | -3.9%
Cc1no[n+]([O-])c1COc1ccc(/C=N/n2nnnc2N)cc1 | 12.4%
O=C(Nc1ccc2nn(-c3ccc(F)cc3)nc2c1)c1cc2ccccc2o1 | 2.5%
Cc1ccc(OCC(=O)N2CCc3ccccc3C2)c(Br)c1 | -6.3%
COc1ccc(NC(=O)CCN2C(=O)/C(=C\c3ccc(C)cc3)SC2=S)cc1 | 7.1%
CN(C)c1ccc(/C=N/Nc2nnc(-c3ccccc3)c(-c3ccccc3)n2)cc1 | 1.8%
C#CCSc1nc2c(cc1C#N)CCC2 | -2%
[O-][n+]1onc2c1CCc1c-2nc(-c2ccccc2Cl)n1O | -3.5%
COc1cc2c(cc1OC)C(c1ccccc1)=NC1(CCCC1)C2 | -1.6%
